Experimental data: paper PMC4336329 (PLoS ONE, 2015)
About 2,200 (0.71%) of roughly 310,000 compounds showed an effect of 50% or more. The effect is printed as a negative number. Some of the results follow.

Each molecule was assayed against human ether-à-go-go-related gene (hERG) potassium channel (human, UniProt Q12809) (assay: primary screen, population patch clamp on CHO cells stably expressing hERG).
Sequence of human ether-à-go-go-related gene (hERG) potassium channel (Q12809 whole entry, looked up): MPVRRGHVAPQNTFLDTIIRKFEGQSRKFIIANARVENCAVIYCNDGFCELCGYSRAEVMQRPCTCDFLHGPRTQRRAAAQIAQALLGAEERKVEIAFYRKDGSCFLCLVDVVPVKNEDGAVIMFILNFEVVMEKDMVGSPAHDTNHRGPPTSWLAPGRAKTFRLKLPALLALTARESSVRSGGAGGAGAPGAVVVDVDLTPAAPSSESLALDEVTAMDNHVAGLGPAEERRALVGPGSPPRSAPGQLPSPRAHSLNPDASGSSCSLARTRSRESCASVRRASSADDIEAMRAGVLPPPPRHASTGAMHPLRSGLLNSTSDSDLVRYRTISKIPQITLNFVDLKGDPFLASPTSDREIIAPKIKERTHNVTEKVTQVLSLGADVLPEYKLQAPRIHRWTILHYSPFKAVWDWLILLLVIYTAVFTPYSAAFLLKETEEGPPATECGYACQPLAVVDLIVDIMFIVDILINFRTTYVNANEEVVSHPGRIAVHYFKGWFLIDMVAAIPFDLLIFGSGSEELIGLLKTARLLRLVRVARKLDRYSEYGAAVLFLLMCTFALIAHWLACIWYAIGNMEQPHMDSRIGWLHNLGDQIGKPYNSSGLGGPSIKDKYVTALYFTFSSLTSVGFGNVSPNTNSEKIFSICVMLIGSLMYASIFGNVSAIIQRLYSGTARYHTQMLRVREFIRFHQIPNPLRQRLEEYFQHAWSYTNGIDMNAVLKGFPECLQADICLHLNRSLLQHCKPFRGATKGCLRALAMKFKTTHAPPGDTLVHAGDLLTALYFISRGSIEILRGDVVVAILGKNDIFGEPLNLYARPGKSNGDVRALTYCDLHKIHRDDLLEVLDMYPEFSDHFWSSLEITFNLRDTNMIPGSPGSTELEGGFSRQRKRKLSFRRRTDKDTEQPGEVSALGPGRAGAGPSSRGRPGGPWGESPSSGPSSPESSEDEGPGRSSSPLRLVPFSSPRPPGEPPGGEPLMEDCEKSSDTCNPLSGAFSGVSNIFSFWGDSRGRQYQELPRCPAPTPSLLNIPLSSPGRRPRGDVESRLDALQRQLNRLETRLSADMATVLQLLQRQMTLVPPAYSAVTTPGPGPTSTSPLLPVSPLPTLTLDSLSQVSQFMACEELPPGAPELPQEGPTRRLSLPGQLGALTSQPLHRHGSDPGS
`O=C(O)CCc1ccc(-c2ccc(Br)cc2)n1-c1ccc(O)cc1` was tested, and the “hERG current change (%, negative = inhibition) at 1uM” value was 14.9%.
For `Cc1cc(C)c[n+](-c2[nH]c(=O)sc2/C=N/NC([S-])=Nc2ccccc2)c1`, the “hERG current change (%, negative = inhibition) at 1uM” value was 7.6%.
`COc1cc(/C=C2/SC(=S)N(CC(=O)O)C2=O)ccc1OCC(=O)Nc1ccc(C)c(C)c1` was tested, and the “hERG current change (%, negative = inhibition) at 1uM” value was -5.45%.
For `Cc1c(Cl)cccc1NC(=O)Nc1cc(C(C)(C)C)nn1C`, the “hERG current change (%, negative = inhibition) at 1uM” value was 11.5%.
In the case of `CCOc1cc2c3c(c1)C1(OCCO1)C(=O)N3C(C)(C)CC2C` (stereo not shown), the “hERG current change (%, negative = inhibition) at 1uM” value is reported as 9.26%.
In the case of `CCOC(=O)c1sc(NCC2CCCO2)nc1C` (stereo not shown), the “hERG current change (%, negative = inhibition) at 1uM” value is reported as 14.2%.
For `COc1ccc(/C=N/NC(=O)CC(=O)NCCc2ccccc2)cc1OC`, the “hERG current change (%, negative = inhibition) at 1uM” value was 11.1%.
`CCCC[C@@H]1C[C@H]1[C@@H](NC(=O)c1ccco1)c1ccc(Cl)cc1` was tested, and the “hERG current change (%, negative = inhibition) at 1uM” value was 6.22%.
For `CCN(CCO)C(=O)C(c1ccccc1)c1ccccc1`, the “hERG current change (%, negative = inhibition) at 1uM” value was 10.8%.
`C[C@@H]1CN(Cc2nc(-c3cccs3)no2)C[C@H](C)O1` was tested, and the “hERG current change (%, negative = inhibition) at 1uM” value was 13.5%.
For `COc1ccc(NC(=O)Nc2ccncc2)c(OC)c1`, the “hERG current change (%, negative = inhibition) at 1uM” value was 17%.
In the case of `CCOC(=O)c1nc(Nc2ccc(N3CCC(C)CC3)cc2)c2ccccc2n1`, the “hERG current change (%, negative = inhibition) at 1uM” value is reported as 3.91%.
In the case of `CCC(C)(C)c1ccc(OCCN2C(=O)NC(C)(C)C2=O)cc1`, the “hERG current change (%, negative = inhibition) at 1uM” value is reported as 7.01%.
With `O=C(CSc1ccc(Cl)cc1)N1CCOCC1` the “hERG current change (%, negative = inhibition) at 1uM” value was 5.38%.
`Clc1cc(Cl)cc(Nc2ncnc(-n3cccc3)n2)c1` was tested, and the “hERG current change (%, negative = inhibition) at 1uM” value was 9.45%.
`O=[N+]([O-])c1ccc(SCCO)nc1SCCO` was tested, and the “hERG current change (%, negative = inhibition) at 1uM” value was 7.52%.
In the case of `Cc1ccc(-n2nnnc2Sc2nc([N+](=O)[O-])nn2C)c(C)c1`, the “hERG current change (%, negative = inhibition) at 1uM” value is reported as -23.1%.
`CC(C)C(=O)Nc1ccc(NC(=O)CCc2ccccc2)cn1` was tested, and the “hERG current change (%, negative = inhibition) at 1uM” value was 12.4%.
In the case of `CCc1nnc(NC(=O)CN2CCN(c3nc(-c4ccccc4)cs3)CC2)s1`, the “hERG current change (%, negative = inhibition) at 1uM” value is reported as -9.65%.
`N#Cc1cn(-c2ccccc2)nc1-c1ccccc1` was tested, and the “hERG current change (%, negative = inhibition) at 1uM” value was -3.08%.
With `Cc1cc(N2CCN(C)CC2)nc2ccc(NC(=S)N3CCN(c4ccc(F)cc4)CC3)cc12` the “hERG current change (%, negative = inhibition) at 1uM” value was 0.602%.
With `COC(=O)C1(Cc2cc(-c3ccc(OC)cc3OC)no2)CCN(C(=O)OC(C)(C)C)CC1` the “hERG current change (%, negative = inhibition) at 1uM” value was 5.64%.
With `CC(=O)N(c1ccc2oc(=O)sc2c1)S(=O)(=O)c1ccccc1` the “hERG current change (%, negative = inhibition) at 1uM” value was 11.4%.
With `Cc1cc(NC(=O)CSCC(=O)OCc2nnc(-c3ccccc3)o2)no1` the “hERG current change (%, negative = inhibition) at 1uM” value was 10.6%.
In the case of `COc1ccc(CN2C(=O)C3C4C=CC(C4)C3C2=O)cc1` (stereo not shown), the “hERG current change (%, negative = inhibition) at 1uM” value is reported as 8.51%.
